Measured values as given in PubChem BioAssay AID2100 (National Center for Advancing Translational Sciences (NCATS), 2009).
Screen size: about 300,000 compounds; about 1,200 (0.4%) were called active. Inconclusive results, whose numbers are uncertain, are shown with a selection of clear calls. Calls follow the shape of the dose curve; as a rule, active = well fitted inhibition curve with a large enough effect; inconclusive = small, poorly fitted or top-dose-only effect, or another doubt; inactive = no such curve, though single readings can be large or run the other way. Potencies of inconclusive entries are doubtful fits and often do not repeat.

target: Lysosomal alpha-glucosidase (Homo sapiens) (UniProt P10253); assay: qHTS Assay for Inhibitors and Activators of Human alpha-Glucosidase Cleavage of Glycogen; conditions: recombinant GAA, glycogen substrate, Amplex Red glucose oxidase fluorescence; activity change, negative = inhibition: at 76.4 µM (top of the series) unless noted;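 as to activity change, negative = inhibition: 0% = full enzyme reaction and -100% = no-enzyme basal signal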
In short: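 Recombinant human alpha-glucosidase (4 nM final) hydrolysed bovine liver glycogen (30 ug) for 40 min at 37 C in pH 5.0 citrate/phosphate with 0.01% Tween-20. Released glucose detected by glucose oxidase/Amplex Red, Ex 573/Em 610 nm. Compounds up to 77 uM; AC50 from Hill fits.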
Potency is read from the fitted curve at half-maximal effect.

Structure (SMILES) | activity change, negative = inhibition | Potency
CCNc1ccc(S(=O)(=O)N(C)C)cc1NCC(=O)Nc1ccc(F)c(Cl)c1 | inactive: 10.3% | 
Cc1nc2ccccn2c1C(=O)NN=C1CCCC1 |  | inconclusive: 25.1 µM [inhibitor, partial curve]
O=C(O)C1Sc2[nH]c(=O)sc2C2c3cc(Br)ccc3OC(=O)C12 (stereo unspecified) |  | inconclusive: 3.14 µM [inhibitor, full curve]
CC(=O)c1cccc(NC(=S)Nc2ccc(F)cc2)c1 |  | inconclusive: 50.1 µM [inhibitor, single point]
CCOC(=O)C1=C(C)N(c2ccc(C)cc2)C(=O)/C1=C\c1ccc(O)c(OC)c1 |  | inconclusive: 7.94 µM [inhibitor, full curve]
CCc1cc2c3c(c1)C1(C(=O)N3C(C)(C)CC2C)C(C#N)=C(N)N2C(=C1C#N)Nc1ccccc12 (stereo unspecified) |  | inconclusive: 14.1 µM [inhibitor, partial curve]
O=C(C[n+]1ccc(CCSc2ccc(F)cc2)cc1)c1ccccc1 |  | inconclusive: 50.1 µM [inhibitor, single point]
CCOC(=O)/C(=N\Nc1ccccc1Cl)N1CCN(C)CC1 |  | inconclusive: 28.2 µM [inhibitor, single point]
CC(C)CNC(=S)NNC(=O)c1ccco1 |  | inconclusive: 28.2 µM [inhibitor, single point]
O=S(=O)(Nc1ccccc1O)c1ccc(Cl)nc1 |  | active: 20 µM
Cc1[nH][nH]c(=O)c1C(c1cc2c(cc1Br)OCO2)c1c(C)[nH][nH]c1=O |  | inconclusive: 8.91 µM [inhibitor, partial curve]
Cc1ccc(Nc2nc(/N=C/NO)n[nH]2)cc1C |  | inconclusive: 15.8 µM [inhibitor, partial curve]
COc1cc(CN2CCC(C(=O)NC3CCCC3)CC2)cc(OC)c1O |  | inconclusive: 28.2 µM [inhibitor, partial curve]
Cc1cccc(C(=O)N2CCCCC2CCN2CCCCC2)c1 (stereo unspecified) | inactive: 2.01% [at 76.3 µM] | 
Cc1ccc(C(=O)N/N=C(/CC(=O)c2cccs2)C(F)(F)F)cc1 |  | inconclusive: 28.2 µM [inhibitor, partial curve]
C/C(CC(=O)Nc1ccc(C)c(Cl)c1)=N\NC(=O)c1ccco1 |  | inconclusive: 39.5 µM [inhibitor, single point]
CCOc1ccc(C2C(C#N)=C(N)SC(N)=C2C#N)cc1OC | inactive: -18.7% | 
Cc1nc(C)c(/C(O)=C/c2nc3ccc([N+](=O)[O-])cc3oc2=O)o1 |  | inconclusive: 5.01 µM [inhibitor, partial curve]
O=C1CCCC2=C1Sc1ccc(Cl)cc1N2 |  | inconclusive: 6.31 µM [inhibitor, full curve]
CN(C)c1ccc(CNC(=O)C2CCN(S(=O)(=O)c3ccc4c(c3)oc(=O)n4C)CC2)cc1 |  | inconclusive: 200 µM [inhibitor, partial curve]
O=C1NC(c2cccc(Cl)c2)Nc2ccccc21 (stereo unspecified) |  | inconclusive: 35.5 µM [inhibitor, partial curve]
Fc1ccccc1COc1ccc(Br)cc1CNCc1ccncc1 | inactive: 7.53% | 
COc1ccc(-c2ccc(SC)nn2)cc1 | inactive: 8.95% | 
CCOC(=O)c1ccc(S(=O)(=O)NNC(=O)c2cccc(N(C)C)c2)cc1 |  | inconclusive: 7.08 µM [inhibitor, partial curve]

Structure (SMILES) | activity change, negative = inhibition | Potency
CCOC(=O)N1CCN(S(=O)(=O)c2ccc(C)cc2)C1 | inactive: -1.83% | 
CN1C(=O)CC(Nc2cccc3cccc(N)c23)C1=O (stereo unspecified) |  | inconclusive: 11.2 µM [inhibitor, partial curve]
COc1ccc(/C(O)=C2/C(=O)C(=O)N(CC3CCCO3)C2c2ccc(O)c(OC)c2)cc1 (stereo unspecified) |  | inconclusive: 39.8 µM [inhibitor, single point]
COc1ccc(N2CCN(C(c3ccccc3OC)c3nnnn3C3CCCC3)CC2)cc1 (stereo unspecified) |  | inconclusive: 17.8 µM [inhibitor, partial curve]
O=C(CCOc1ccccc1F)N1CCN(c2ccccc2O)CC1 |  | inconclusive: 2.8 µM [inhibitor, partial curve]
COc1ccc(-c2nc3n(n2)C(c2ccc(O)cc2)C(C(=O)Nc2cccnc2)=C(C)N3)cc1OC (stereo unspecified) |  | inconclusive: 17.8 µM [inhibitor, partial curve]
CC(=O)Nc1ccc(S(=O)(=O)NNC(=O)c2sc(=S)n(C)c2C)cc1 |  | inconclusive: 15.7 µM [inhibitor, single point]
Cc1ccnc(NC(c2cccc(O)c2)c2ccc3ccc(C)nc3c2O)c1 (stereo unspecified) |  | inconclusive: 10 µM [inhibitor, partial curve]
CCOc1cc(C2CC(=O)Nc3cc(C)c(C)cc32)ccc1O (stereo unspecified) |  | inconclusive: 24.9 µM [inhibitor, single point]
CN(N)c1nc2ccccc2nc1C(F)(F)F |  | inconclusive: 5.62 µM [inhibitor, full curve]
N#Cc1cc(-c2ccccc2)oc1/N=C/c1ccccc1O |  | inconclusive: 25.1 µM [inhibitor, single point]
CC(=O)N1CCC2(CC1)C/C(=N\NC(=S)Nc1ccccc1C)c1cc(O)ccc1O2 |  | inconclusive: 35.5 µM [inhibitor, single point]
Cc1cccc(-n2c(C)cc(/C=N/NC(N)=S)c2C)c1 |  | inconclusive: 31.6 µM [inhibitor, partial curve]
COc1ccc(NC(=O)c2cnc3cc(C)ccn3c2=O)c(OC)c1 | inactive: -9.47% [at 76.3 µM] | 
Cn1c(=O)c2cc(S(=O)(=O)Nc3cccc(F)c3)ccc2n(C)c1=O | inactive: -10.8% | 
Cn1cccc1CC(=O)NNC(=S)NC(=O)c1ccc(F)cc1 |  | inconclusive: 50.1 µM [inhibitor, single point]
Cc1ccccc1N/N=C/c1ccc(C#N)cc1 |  | inconclusive: 14 µM [inhibitor, partial curve]
COC(=O)c1ccccc1NS(=O)(=O)c1ccc(Cl)nc1 | inactive: 0.52% | 
CCC/C(C)=N/NC(=O)c1ccccc1O |  | inconclusive: 3.98 µM [inhibitor, full curve]
O=C(Nc1ccccc1N1CCCC1)c1ccc2c(c1)OCO2 |  | inconclusive: 22.4 µM [inhibitor, partial curve]
COc1ccc(C2CC(O)(c3ccccc3)Oc3c(C)ccc(C)c32)cc1 (stereo unspecified) |  | inconclusive: 39.8 µM [inhibitor, single point]
CC(=O)Nc1ccc2c(c1)CN(c1cc(C)ccc1C)CO2 |  | inconclusive: 25.1 µM [inhibitor, partial curve]
CCOC(=O)c1sc(/N=C/c2ccc(O)cc2O)cc1C |  | inconclusive: 39.5 µM [inhibitor, single point]
N/C(=N\NS(=O)(=O)c1ccccc1C(F)(F)F)c1ccccn1 |  | inconclusive: 7.03 µM [inhibitor, partial curve]

Structure (SMILES) | activity change, negative = inhibition | Potency
COc1ccccc1Nc1ccc(NS(=O)(=O)c2ccc(C(C)=O)cc2)cc1 |  | inconclusive: 10 µM [inhibitor, partial curve]
COc1ccc(Cl)cc1NC(=O)CSc1nc(-c2cccs2)cc(C(F)(F)F)n1 | inactive: 12.5% [at 76.3 µM] | 
CCCCC(=O)N/N=C/c1ccc(Sc2cccc3cccnc23)o1 | inactive: -12.8% | 
Cc1ccc(NCc2ccccc2-c2nnc(-c3ccccc3Cl)o2)cc1Cl |  | inconclusive: 11.2 µM [inhibitor, single point]
CCCN1C(=O)/C(=C/c2ccc(N3CCOCC3)cc2)NC1=S |  | inconclusive: 12.6 µM [inhibitor, partial curve]
CSc1ccc(/C=N/Nc2cccc(C(=O)O)c2)cc1 |  | inconclusive: 28 µM [inhibitor, partial curve]
CCNC(=S)NNc1ccccc1 |  | inconclusive: 6.26 µM [inhibitor, single point]
Cc1ccn2c(=O)c(C(=O)NCCc3ccc(S(N)(=O)=O)cc3)c(O)nc2c1 | inactive: 0.0802% [at 76.3 µM] | 
COc1ccc2c(c1)NC(c1cc(Cl)cc(Cl)c1O)c1cccn1-2 (stereo unspecified) |  | inconclusive: 39.8 µM [activator, single point]
O=C(NC(=S)Nc1ccccc1N1CCCC1)c1ccc(F)cc1 |  | inconclusive: 3.16 µM [inhibitor, full curve, poor fit]
CCOC(=O)/C=C(\C)Sc1cc(=O)oc2ccccc12 | inactive: -2.18% | 
Cc1ccccc1N=C1NC(=O)CC(c2ccccc2)S1 (stereo unspecified) |  | active: 11.2 µM
CCOc1ccc(Nc2nc(Cc3nnc(SCC(=O)NCC4CCCO4)n3C)cs2)cc1 (stereo unspecified) |  | active: 11.2 µM
NC(=S)N/N=C/c1ccccc1[N+](=O)[O-] |  | inconclusive: 25.1 µM [inhibitor, partial curve]
O=C(NNc1ccc(F)cc1F)c1c(F)cccc1Cl |  | inconclusive: 5.62 µM [inhibitor, full curve]
CCOc1cc(CNc2ccccc2SC)ccc1O |  | active: 28 µM
c1ccc(Nc2cccc3c(Nc4ccccc4)cccc23)cc1 |  | inconclusive: 9.92 µM [inhibitor, partial curve]
COc1ccc(-c2n[nH]c(C)c2-c2cc(OC)ccc2O)cc1 |  | inconclusive: 11.1 µM [inhibitor, partial curve]
C/C(=N\Nc1ccc(C)c(Cl)c1)c1cccnc1 |  | inconclusive: 22.4 µM [inhibitor, partial curve]
O=C(COCc1cc(-c2ccco2)on1)Nc1cccc(O)c1 | inactive: 13.2% [at 76.3 µM] | 
CC(C)Nc1nc(NNc2nc(Cl)nc(NC(C)(C)C)n2)nc(NC(C)C)n1 |  | inconclusive: 12.6 µM [inhibitor, partial curve]
Cc1ccc(-c2nc3ncccn3c2NC2CCCCC2)o1 |  | active: 28 µM
Cn1c(=O)n(C)c2cc(CNc3ccc(N4CCOCC4)c(C(=O)O)c3)ccc21 |  | active: 9.92 µM
